# In ChEMBL document CHEMBL4476868, “Benzimidazole derivatives and uses thereof” (2017):
# Molecular target: Acetyl-coenzyme A synthetase, cytoplasmic (Homo sapiens, UniProt Q9NR19)
# Assay: Inhibition of ACSS2 in human HCT116 cells pre-incubated for 2 hrs before [1,2-14C] sodium acetate addition and measured after 3 hrs by [14C]-Acetate uptake assay
# Assay type: cell-based
# UniProt Q9NR19, sequence (Q9NR19 whole entry): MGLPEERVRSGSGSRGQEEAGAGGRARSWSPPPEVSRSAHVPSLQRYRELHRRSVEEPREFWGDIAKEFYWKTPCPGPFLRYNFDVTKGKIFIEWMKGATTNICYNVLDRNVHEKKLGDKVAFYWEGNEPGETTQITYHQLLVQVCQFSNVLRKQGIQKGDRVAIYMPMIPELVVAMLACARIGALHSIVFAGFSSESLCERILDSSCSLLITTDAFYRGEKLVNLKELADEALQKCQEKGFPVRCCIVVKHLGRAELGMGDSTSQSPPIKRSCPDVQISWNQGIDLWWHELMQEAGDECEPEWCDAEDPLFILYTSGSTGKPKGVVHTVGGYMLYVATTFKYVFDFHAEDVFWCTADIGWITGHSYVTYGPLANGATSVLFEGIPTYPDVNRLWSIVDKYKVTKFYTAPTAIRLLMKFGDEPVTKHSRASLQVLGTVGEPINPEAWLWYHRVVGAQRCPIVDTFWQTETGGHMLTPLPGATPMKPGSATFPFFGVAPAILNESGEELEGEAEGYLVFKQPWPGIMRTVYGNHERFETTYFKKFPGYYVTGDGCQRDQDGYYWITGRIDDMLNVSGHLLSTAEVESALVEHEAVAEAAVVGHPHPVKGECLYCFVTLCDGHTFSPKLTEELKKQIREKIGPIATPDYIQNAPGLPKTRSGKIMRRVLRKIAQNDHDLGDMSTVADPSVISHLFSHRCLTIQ
row,SMILES,IC50
1,CCN1C[C@H](NC(=O)c2ccc3nc(C(O)(c4ccccc4)c4ccccc4)n(C)c3c2)CCC1=O,250 to 1000 nM
2,CCn1c(C(O)(c2ccccc2)c2ccccc2)nc2ccc(C3(CCO)COC3)cc21,250 to 1000 nM
3,CCn1c(C(O)(c2ccccc2)c2ccccc2)nc2ccc(C(=O)N[C@@H]3CCC[C@H]3O)cc21,250 to 1000 nM

# Test system: 786-0
# Assay: Antitumor activity against human 786-0 cells xenografted in SCID/Biege mouse assessed as tumor size at 200 mg/kg, po BID for 20 days measured twice weekly (reference value: 623.1 +/- 95.1 mm3)
# Assay type: functional
row,SMILES,Activity
1,C[C@@H](O)CNC(=O)c1ccc2nc(C(O)(c3ccccc3F)c3ccccc3F)n(C)c2c1,597.5 mm3
2,CCn1c(C(O)(c2ccccc2F)c2ccccc2F)nc2ccc(C(=O)NC[C@@H](C)O)cc21,475.2 mm3
3,C[C@@H](O)CNC(=O)c1ccc2nc(C(O)(c3ccccc3)c3ccccc3)n(C)c2c1,668.9 mm3
4,CCn1c(C(O)(c2ccccc2)c2ccccc2)nc2ccc(C(=O)NC[C@@H](C)O)cc21,281.1 mm3
